Measured values from article PMC5489658.
Results are given in words; binding and its absence hold for the method and conditions named. In cells and extracts the contact can be indirect. Some results given as binding are weak or reduced against the parent protein; the word gives no strength. For part of these data: Sequences can lack the tags named with a protein.

Chains of the proteins cited; added tags and fusions are not shown.
UniProt Q7Z434: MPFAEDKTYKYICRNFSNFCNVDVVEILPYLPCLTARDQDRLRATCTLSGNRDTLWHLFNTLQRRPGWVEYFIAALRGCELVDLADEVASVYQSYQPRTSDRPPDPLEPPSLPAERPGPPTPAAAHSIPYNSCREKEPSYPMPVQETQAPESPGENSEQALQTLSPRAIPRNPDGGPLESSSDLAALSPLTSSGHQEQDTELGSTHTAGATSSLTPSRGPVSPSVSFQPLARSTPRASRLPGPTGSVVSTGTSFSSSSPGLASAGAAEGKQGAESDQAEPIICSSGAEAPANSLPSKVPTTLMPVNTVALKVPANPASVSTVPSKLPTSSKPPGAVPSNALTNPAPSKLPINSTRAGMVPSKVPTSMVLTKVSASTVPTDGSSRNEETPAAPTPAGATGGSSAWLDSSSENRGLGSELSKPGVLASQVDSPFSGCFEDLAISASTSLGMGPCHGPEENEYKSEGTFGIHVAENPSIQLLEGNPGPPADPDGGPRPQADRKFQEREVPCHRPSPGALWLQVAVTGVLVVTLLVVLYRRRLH
UniProt P22026: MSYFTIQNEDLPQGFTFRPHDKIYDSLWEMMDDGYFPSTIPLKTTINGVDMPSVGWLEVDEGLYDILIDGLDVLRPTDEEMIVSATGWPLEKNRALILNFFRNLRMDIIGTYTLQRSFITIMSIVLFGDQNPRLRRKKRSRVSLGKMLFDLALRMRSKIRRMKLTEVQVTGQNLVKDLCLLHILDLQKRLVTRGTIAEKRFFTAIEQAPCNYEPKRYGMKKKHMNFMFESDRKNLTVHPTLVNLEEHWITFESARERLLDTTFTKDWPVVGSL
UniProt A0A0B5AC19: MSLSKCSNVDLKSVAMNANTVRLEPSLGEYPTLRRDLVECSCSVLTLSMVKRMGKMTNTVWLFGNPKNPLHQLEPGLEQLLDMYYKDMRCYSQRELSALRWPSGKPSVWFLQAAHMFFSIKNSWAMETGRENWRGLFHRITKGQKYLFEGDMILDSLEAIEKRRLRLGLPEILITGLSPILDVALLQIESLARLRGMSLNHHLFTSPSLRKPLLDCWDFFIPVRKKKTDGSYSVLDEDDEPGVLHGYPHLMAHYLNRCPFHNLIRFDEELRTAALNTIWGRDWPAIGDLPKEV
UniProt P42224: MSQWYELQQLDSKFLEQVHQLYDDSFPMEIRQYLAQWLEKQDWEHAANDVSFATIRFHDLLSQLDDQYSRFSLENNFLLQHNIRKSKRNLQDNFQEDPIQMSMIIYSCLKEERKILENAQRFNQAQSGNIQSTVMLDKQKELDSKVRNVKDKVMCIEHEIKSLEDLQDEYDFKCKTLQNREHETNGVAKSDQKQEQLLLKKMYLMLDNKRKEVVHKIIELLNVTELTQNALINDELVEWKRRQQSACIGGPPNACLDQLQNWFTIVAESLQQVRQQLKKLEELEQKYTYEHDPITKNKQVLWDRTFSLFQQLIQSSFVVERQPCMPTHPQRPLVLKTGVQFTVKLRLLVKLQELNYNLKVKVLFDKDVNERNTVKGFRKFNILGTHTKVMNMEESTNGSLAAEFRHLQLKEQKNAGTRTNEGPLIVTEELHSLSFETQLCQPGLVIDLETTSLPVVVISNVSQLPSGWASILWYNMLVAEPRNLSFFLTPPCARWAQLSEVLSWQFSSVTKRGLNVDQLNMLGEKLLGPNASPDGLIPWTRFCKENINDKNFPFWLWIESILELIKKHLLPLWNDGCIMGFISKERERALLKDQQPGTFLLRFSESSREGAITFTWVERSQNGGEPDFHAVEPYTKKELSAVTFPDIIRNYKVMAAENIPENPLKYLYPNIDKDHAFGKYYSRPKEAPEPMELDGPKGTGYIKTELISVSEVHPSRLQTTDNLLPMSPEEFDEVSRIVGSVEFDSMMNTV
UniProt P40763: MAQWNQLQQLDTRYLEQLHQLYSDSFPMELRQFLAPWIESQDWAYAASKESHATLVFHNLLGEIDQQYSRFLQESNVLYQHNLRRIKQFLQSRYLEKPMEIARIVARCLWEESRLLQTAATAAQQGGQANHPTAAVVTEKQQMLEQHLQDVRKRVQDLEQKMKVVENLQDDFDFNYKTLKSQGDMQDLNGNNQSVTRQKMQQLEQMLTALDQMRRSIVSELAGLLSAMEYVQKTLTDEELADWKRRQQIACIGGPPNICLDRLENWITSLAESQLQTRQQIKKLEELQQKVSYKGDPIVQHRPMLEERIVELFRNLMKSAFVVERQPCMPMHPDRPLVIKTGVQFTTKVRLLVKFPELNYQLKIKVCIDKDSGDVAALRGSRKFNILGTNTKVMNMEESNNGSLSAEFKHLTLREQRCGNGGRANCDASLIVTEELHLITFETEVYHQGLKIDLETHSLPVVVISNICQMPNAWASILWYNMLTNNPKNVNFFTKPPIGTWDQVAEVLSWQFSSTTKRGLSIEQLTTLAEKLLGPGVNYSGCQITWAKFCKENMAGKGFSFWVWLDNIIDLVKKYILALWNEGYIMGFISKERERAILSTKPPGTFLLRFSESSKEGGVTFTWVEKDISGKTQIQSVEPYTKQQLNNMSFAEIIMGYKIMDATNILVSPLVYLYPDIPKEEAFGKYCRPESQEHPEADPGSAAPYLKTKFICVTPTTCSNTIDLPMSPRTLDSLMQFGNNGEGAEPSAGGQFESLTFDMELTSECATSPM
UniProt P52630: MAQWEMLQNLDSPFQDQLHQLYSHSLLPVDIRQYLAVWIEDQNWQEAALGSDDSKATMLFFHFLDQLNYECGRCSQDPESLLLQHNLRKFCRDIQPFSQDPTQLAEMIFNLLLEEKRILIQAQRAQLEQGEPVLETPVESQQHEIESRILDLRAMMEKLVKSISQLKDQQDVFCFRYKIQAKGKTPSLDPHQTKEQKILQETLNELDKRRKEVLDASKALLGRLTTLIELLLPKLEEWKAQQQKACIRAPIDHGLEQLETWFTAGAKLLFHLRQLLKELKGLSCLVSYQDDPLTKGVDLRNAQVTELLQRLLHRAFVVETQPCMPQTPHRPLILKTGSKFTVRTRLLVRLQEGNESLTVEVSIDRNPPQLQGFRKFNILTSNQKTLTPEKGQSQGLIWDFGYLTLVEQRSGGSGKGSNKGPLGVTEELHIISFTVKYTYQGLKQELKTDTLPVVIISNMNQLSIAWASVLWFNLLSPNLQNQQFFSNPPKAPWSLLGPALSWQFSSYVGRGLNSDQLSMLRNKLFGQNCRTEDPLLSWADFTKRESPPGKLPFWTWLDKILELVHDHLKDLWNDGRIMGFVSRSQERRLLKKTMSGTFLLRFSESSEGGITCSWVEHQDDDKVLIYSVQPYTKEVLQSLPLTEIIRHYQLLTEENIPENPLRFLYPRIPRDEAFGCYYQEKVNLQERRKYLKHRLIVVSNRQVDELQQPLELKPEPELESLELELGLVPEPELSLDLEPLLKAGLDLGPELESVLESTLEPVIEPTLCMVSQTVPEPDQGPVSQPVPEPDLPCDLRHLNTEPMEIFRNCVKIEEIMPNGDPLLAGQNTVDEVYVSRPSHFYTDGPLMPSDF

Assays:
[1] = molecular target: FLAG-tagged MAVS (mitochondrial antiviral-signaling protein) (UniProt Q7Z434); assay: co-IP
[2] = molecular target: T1, FLAG-tagged IKKε (IκB kinase ε) (UniProt Q14164); assay: co-IP
T1 sequence: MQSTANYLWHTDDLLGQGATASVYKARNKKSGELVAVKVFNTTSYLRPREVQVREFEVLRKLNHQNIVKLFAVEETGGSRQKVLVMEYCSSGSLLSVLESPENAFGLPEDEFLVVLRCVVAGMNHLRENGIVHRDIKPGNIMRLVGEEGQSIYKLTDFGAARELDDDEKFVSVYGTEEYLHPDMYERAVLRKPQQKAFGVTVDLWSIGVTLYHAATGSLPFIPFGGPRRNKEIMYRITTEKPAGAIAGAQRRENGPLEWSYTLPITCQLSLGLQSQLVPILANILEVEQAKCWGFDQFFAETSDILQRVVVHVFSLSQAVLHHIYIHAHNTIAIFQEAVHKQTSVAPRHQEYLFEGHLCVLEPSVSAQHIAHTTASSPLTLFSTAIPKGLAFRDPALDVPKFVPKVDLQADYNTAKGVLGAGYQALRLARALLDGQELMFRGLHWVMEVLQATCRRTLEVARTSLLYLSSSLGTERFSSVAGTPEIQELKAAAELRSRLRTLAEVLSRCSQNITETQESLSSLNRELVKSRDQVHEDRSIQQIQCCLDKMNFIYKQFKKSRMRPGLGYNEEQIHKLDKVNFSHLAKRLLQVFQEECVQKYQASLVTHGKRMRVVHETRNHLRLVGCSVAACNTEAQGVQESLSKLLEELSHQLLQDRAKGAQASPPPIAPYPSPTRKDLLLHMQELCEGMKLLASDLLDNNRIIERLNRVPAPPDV

[3] = molecular target: T2, FLAG-tagged TBK1 (TANK-binding kinase 1) (UniProt Q9UHD2); assay: co-IP
T2 sequence: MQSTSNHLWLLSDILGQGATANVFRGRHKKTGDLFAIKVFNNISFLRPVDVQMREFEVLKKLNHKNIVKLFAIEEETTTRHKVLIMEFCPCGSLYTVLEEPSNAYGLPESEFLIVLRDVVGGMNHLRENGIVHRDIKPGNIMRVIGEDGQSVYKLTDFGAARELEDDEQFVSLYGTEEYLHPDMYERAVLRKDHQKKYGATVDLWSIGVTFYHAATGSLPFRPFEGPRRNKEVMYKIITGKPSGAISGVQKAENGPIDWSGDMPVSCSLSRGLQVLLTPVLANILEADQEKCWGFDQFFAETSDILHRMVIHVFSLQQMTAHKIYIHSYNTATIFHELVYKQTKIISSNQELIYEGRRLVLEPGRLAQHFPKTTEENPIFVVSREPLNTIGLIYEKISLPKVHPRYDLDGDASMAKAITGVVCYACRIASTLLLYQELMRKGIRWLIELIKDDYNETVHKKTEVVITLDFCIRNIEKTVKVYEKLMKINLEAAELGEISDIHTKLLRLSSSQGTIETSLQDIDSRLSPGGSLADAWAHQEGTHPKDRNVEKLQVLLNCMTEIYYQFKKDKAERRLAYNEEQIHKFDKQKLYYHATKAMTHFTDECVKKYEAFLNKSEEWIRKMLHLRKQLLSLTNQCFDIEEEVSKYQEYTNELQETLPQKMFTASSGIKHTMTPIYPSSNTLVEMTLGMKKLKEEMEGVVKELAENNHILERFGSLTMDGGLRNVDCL

[4] = molecular target: V5-tagged UUKV NSs (Uukuniemi virus nonstructural protein NSs, C-terminal V5 tag) (Uukuniemi virus) (UniProt P22026); assay: co-IP
[5] = molecular target: UUKV NSs (native, untagged, from UUKV infection) (Uukuniemi virus (strain derived from prototype S-23)) (UniProt P22026); assay: co-IP; […]) for 8 h, […] (25 mM HEPES pH 7.5, 150 mM NaCl, 50 mM MgCl2, 1% Triton X-100); […]
[6] = molecular target: V5-tagged SFTSV NSs (severe fever with thrombocytopenia syndrome virus nonstructural protein NSs, C-terminal V5 tag) (severe fever with thrombocytopenia syndrome virus); assay: co-IP

## V5-tagged SFTSV NSs (severe fever with thrombocytopenia syndrome virus nonstructural protein NSs, C-terminal V5 tag) (from UniProt A0A0B5AC19 1-293)
[1]
  binding: no binding
[2]
  binding: no binding
[3]
  binding: binds

## FLAG-tagged MAVS (mitochondrial antiviral-signaling protein) (from UniProt Q7Z434 1-540)
[4]
  binding: binds
[5]
  binding: binds weakly

## endogenous STAT1 (from UniProt P42224 1-750)
[4]
  binding: no binding

## endogenous STAT3 (from UniProt P40763 1-770)
[4]
  binding: no binding

## endogenous STAT2 (from UniProt P52630 1-851)
[6]
  binding: binds
[4]
  binding: no binding

## V5-tagged UUKV NSs (Uukuniemi virus nonstructural protein NSs, C-terminal V5 tag) (from UniProt P22026 1-273)
[1]
  binding: binds
[2]
  binding: no binding
[3]
  binding: no binding
